In ChEMBL document CHEMBL1157539, “Thousands of chemical starting points for antimalarial lead identification” (Nature, 2010):
In all, about 13,000 compounds were measured (“IFI”: median about 4, highest 2% from about 17 on). This is one part of the list.

Test: GSK_TCMDC: Inhibition Frequency Index (IFI). The number of non-kinase HTS assays where a compound showed > 50 % inhibition, expressed as a percentage of the number of such assays in which the compound was tested (-0 is zero)
Type: functional

Row | SMILES | IFI [%]
1 | O=c1cc(NCCCN(Cc2ccccc2)Cc2ccccc2)[nH]c2ccccc12 | 3.7
2 | CC(C)NCc1cccc(-c2ccc(NC(=O)c3ccc(F)cc3)cc2)c1 | 1.96
3 | Cc1cccc2nc(-c3cccc(-c4ccc(NC(=O)C5CC(=O)Nc6ccccc65)cc4)c3)[nH]c12 (stereo unspecified) | 1.72
4 | Nc1nc(N)c2c(ccc3c2ccn3Cc2ccccn2)n1 | 3.55
5 | Cc1cc(NCc2ccccc2)nc(NCc2ccccc2)n1 | 8.78
6 | Cc1cccc2nc(-c3ccc(-c4ccc(CN5CCC(C(N)=O)CC5)cc4)cc3)[nH]c12 | 2.91
7 | CCNC(=O)N1CCc2ccc(Oc3nc(NCc4ccccc4OC)ncc3C)cc2CC1 | 6.1
8 | Cc1cc(Nc2ccc3c(c2)CCC3)n2ncnc2n1 | 1.49
9 | CS(=O)(=O)c1ccc(CNCc2cccc(-c3ccc(-c4nc5cc(C(F)(F)F)ccc5[nH]4)cc3)c2)cc1 | 6.73
10 | COc1ccccc1/C=C/C(=O)N(C)C1CCN(CCCCCNC(=O)/C=C/c2ccc(Cl)c(Cl)c2)CC1 | 7.91
11 | CCC(=O)c1cc(C(=O)NCCc2cccc(OC)c2)ccc1OC | 0
12 | Cc1cc(NC(=O)c2ccc(-c3ccccc3)cc2)no1 | 0.68
13 | CC(C)(C)C1CC(=O)CC2C(=O)N(C3CCCCC3)C(=O)C21 (stereo unspecified) | 0.74
14 | COc1cccc(CNC[C@@H](O)[C@H](Cc2ccccc2)NC(=O)c2cc(C3CCCC3)cc(N3CCCCS3(=O)=O)c2)c1 | 8.96
15 | Cc1cccc2nc(-c3cccc(-c4cccc(CNC(C)C)c4)c3)[nH]c12 | 3.96
16 | O=C1CCCN1CCCNCc1cccc(-c2cccc(-c3nc4cc(C(F)(F)F)ccc4[nH]3)c2)c1 | 5.77
17 | CN(C)c1ccc(-c2ccc(C(=O)NC3CCN(Cc4ccccc4F)CC3)s2)cc1 | 3.64
18 | COc1ccc(Oc2ccccc2CNCC2CCN(CC3CCCCC3)CC2)cc1 | 7.35
19 | Cc1[nH]c(C)c(-c2ccc(CCc3ccc(F)cc3F)cc2)c(=O)c1Br | -0
20 | COc1cc2nc(-c3ccccc3)nc(N3CCN(CC(=O)N4CCCC4)CC3)c2cc1OC | 0
21 | COc1ccc2nccc([C@@H](O)CN3CCC(NCc4cnc5c(c4)NC(=O)CS5)C(F)C3)c2c1 (stereo partly specified) | 4.76
22 | c1ccc2c(Nc3ccc(OCCOCCOc4ccc(Nc5c6ccccc6nc6ccccc56)cc4)cc3)c3ccccc3nc2c1 | 3.76
23 | O=C(O)CCCN1CCCC(=C(c2ccccc2)c2ccccc2)C1 | -0

Row | SMILES | IFI [%]
24 | FC(F)(F)c1ccc2[nH]c(-c3ccc(-c4ccc(CNCc5cnn(-c6ccccc6)n5)cc4)cc3)nc2c1 | 12.7
25 | COc1cc(F)c2ncc(Cl)c(C(O)CN3CCC(NC(=O)c4ccc5c(n4)NC(=O)CO5)CC3)c2c1 (stereo unspecified) | 2.19
26 | C#C[C@H]1O[C@@H](n2cnc3c(Nc4cc(Br)cc(C(F)(F)F)c4)ncnc32)[C@H](O)[C@@H]1O | 1.45
27 | COc1cc(C(F)(F)F)c2cc(CNCCCNc3nc4ccccc4[nH]3)[nH]c2c1 | 7.09
28 | Cc1cccc(C)c1CNc1nc(N2CCOCC2)cc2c(C)c(C)[nH]c12 | 10.7
29 | CC(C)Cn1c(Sc2ccc(C#N)c([N+](=O)[O-])c2)nnc1-c1cccc(Cl)c1 | 4.93
30 | CCCOc1cccc(C(=O)N[C@@H](Cc2ccccc2)[C@H](O)CNCc2cccc(OC)c2)c1 | 8.54
31 | CN1CCC(Oc2ccc(CN3CC[C@H](NC(=O)c4ccc(F)c(F)c4)C3)c3ccccc23)C1 (stereo partly specified) | 6.99
32 | CS(=O)(=O)CCN(CCS(C)(=O)=O)Cc1ccc(-c2ccc3ncnc(Nc4ccc(OCc5cccc(F)c5)c(Cl)c4)c3c2)o1 | 3.7
33 | c1cc(CN2CCCCC2)cc(-c2csc(-c3nc4ccccc4[nH]3)c2)c1 | -0
34 | CC(C)CCn1c(Sc2ccc(C#N)c([N+](=O)[O-])c2)nnc1-c1ccc(Cl)cc1 | 5.04
35 | CN1CCN(CCCNCc2ccccc2-c2cccc(CNCc3ccc4c(c3)OCO4)c2)CC1 | 3.73
36 | CCCCCn1c(Sc2ccc(C#N)c([N+](=O)[O-])c2)nnc1-c1ccc(OC)cc1 | 5.71
37 | CN(C)c1ccc(-c2csc(C(=O)NCC3CCN(Cc4cccc(C(F)(F)F)c4)C3)c2)cc1 (stereo unspecified) | 6.12
38 | NC(=O)C1CCN(Cc2ccc(-c3ccc(-c4nc5cc(C(F)(F)F)ccc5[nH]4)s3)cc2)CC1 | 6.8
39 | O=C(NC1CCN(Cc2ccccc2)CC1)c1ccc(-c2nc3cc(Cl)c(Cl)cc3[nH]2)s1 | 3.68
40 | O=C(Nc1ccc2c(c1)CCN2C1CCN(Cc2ccc(C(F)(F)F)cc2F)C1)c1ccco1 (stereo unspecified) | -0
41 | CCC(CC)n1c(COC)cc2c3c(N)nc(N)nc3ccc21 | 2.72
42 | CC(C)C(NC(=O)c1c(F)cccc1F)C(=O)Nc1ccc(Cc2nc3ccccc3s2)cc1 (stereo unspecified) | 0.99
43 | C=C(NC(=O)C1CCCCC1)C(=O)OC | -0
44 | Cc1cccc(CNc2nc(C)cc(N[C@@H](Cc3ccccc3)C(=O)NCc3cccc(F)c3)n2)c1 | 19.1
45 | NCC1CCCN1Cc1cccc(-c2ccc(-c3nc4cc(C(F)(F)F)ccc4[nH]3)cc2)c1 (stereo unspecified) | 8.82
46 | COc1ccc2cc(CNCCCCCCNCc3ccc4cc(OC)ccc4c3)ccc2c1 | 12.3

Row | SMILES | IFI [%]
47 | COc1ccc2nccc(N3CCC(O)(CCNCc4ccc5c(n4)NC(=O)CO5)CC3)c2n1 | 0.74
48 | O=C(Nc1cccc(C(F)(F)F)c1)Nc1ccc2nonc2c1 | 22.5
49 | c1ccc(COc2ccc(Nc3ncnc4cnc(-c5ccc(CN6CCCCC6)o5)cc34)cc2)cc1 | 1.47
50 | CCCCOc1ccc(-n2c(Nc3ccccc3)nc3cc(S(N)(=O)=O)ccc32)cc1 | 3.1
51 | CN1CCC(NCc2cccc(-c3ccc(S(=O)(=O)NCCN4CCCC4)s3)c2)CC1 | -0
52 | COc1ccc2c(N/N=C/c3cccc([N+](=O)[O-])c3)cc(C)nc2c1 | 1.5
53 | CC(=O)Nc1ccc(OCCN(Cc2ccccc2C(F)(F)F)c2ccc(C#N)c(C(F)(F)F)c2)cc1 | 7.94
54 | CC(C)NCc1cccc(-c2ccc(NC(=O)c3cccc(C#N)c3)cc2)c1 | 1.98
55 | CC(C)CCNC(=O)c1cnc2c(O)cccc2c1Nc1cccc(NC(=O)c2ccc(F)cc2)c1 | 7.81
56 | CCCC(C)c1ccc(N2C(N)=NC(N)=NC2(C)C)cc1 (stereo unspecified) | 4.38
57 | COc1ccccc1N1CCN(C(C(=O)NCc2ccc3c(c2)OCO3)c2ccc(C)cc2)CC1 (stereo unspecified) | 1.38
58 | Cc1ccc(-n2c(C)nc3c(Nc4ccc(-c5ccncc5)cc4)ncnc32)c(C)c1 | 7.97
59 | Cc1cc(O)c(CNC2CCCCC2)cc1C | -0
60 | O=C(Nc1ccccc1)N(Cc1ccccc1-c1cccc(CNC2CCCC2)c1)C1CCN(Cc2ccccc2)CC1 | 7.86
61 | CC(=O)Nc1ccc(NC(=O)c2cc(-c3ccc(C)cc3O)n[nH]2)cc1 | 0
62 | O=C(Nc1cccc(-c2ccc(-c3nc4cc(F)ccc4[nH]3)cc2)c1)Nc1ccc(Cl)c(Cl)c1 | 4.95
63 | Cc1cc(N[C@@H](Cc2ccccc2)C(=O)NCCOc2ccccc2)nc(Nc2ccccc2)n1 | 4.65
64 | C(=NN=c1cc(-c2ccccc2)[nH]c2ccccc12)c1cccnc1 | 4.9
65 | c1ccc2c(CNc3ccnc(NCc4cccc5ccccc45)n3)cccc2c1 | 16.2
66 | COc1cc(F)c2ncc(Cl)c(C(O)CN3CCC(NC(=O)c4ccc5c(c4)NC(=O)CS5)CC3)c2c1 (stereo unspecified) | 2.19
67 | O=C(c1cccc(-c2ccc(-c3nc4cc(F)ccc4[nH]3)s2)c1)N1CCCCC1CN1CCC(O)C1 (stereo unspecified) | 1.75
68 | O=C(NCCc1cccc(F)c1)c1ccc(N2CCN(c3ccncc3)CC2)cn1 | 10.3
69 | Cc1cc(NC(=O)Nc2ccc(Cl)cc2F)c2ccccc2n1 | 7.32

Row | SMILES | IFI [%]
70 | Cc1cc(NCCC(=O)NCCOc2ccccc2)nc(NCCOc2ccccc2)n1 | 4.88
71 | O=C(Nc1cc(Cl)ccc1-n1cncn1)C1(c2ccccc2)CC1 | 3.88
72 | CN1CCN(c2cc3c(cc2Cl)CCN3C(=O)Cc2ccc(Cl)c(NC(=O)Nc3cccc(C#N)c3)c2)CC1 | 2.88
73 | Cc1cccc(C(=O)NC(NC(=S)Nc2cc(Cl)ccc2Cl)C(Cl)(Cl)Cl)c1 (stereo unspecified) | 5
74 | COCCn1c(C)nc2ccccc2c1=O | -0
75 | CCOC(=O)C(C#N)NC(=O)C=Cc1ccccc1 (stereo unspecified) | 3.52
76 | CC1(C)NC(N)=NC(=N)N1OCCCO | 2.19
77 | CCN(CC)CCN(Cc1ccc(-c2ccc(C(F)(F)F)cc2)cc1)C(=O)Cn1c(CCc2cc(F)c(F)cc2F)nc(=O)c2ccccc21 | 8.89
78 | O=C(/C=N/O)Nc1ccccc1[N+](=O)[O-] | 0
79 | Cc1cc(=O)[nH]c(-n2nc(C)cc2NC(=O)CC(c2ccccc2)c2ccccc2)n1 | 10.4
80 | O=C(NCc1ccc(F)cc1)Nc1cccc(-c2ccc(-c3nc4ccccc4[nH]3)cc2)c1 | 5.08
81 | CN(C)CCN(C)Cc1cccc(-c2cccc(NC(=O)c3cccc(C#N)c3)c2)c1 | 1.33
82 | Cc1nccc2c(NC(=O)N[C@@H]3CCN(c4ncc(C(F)(F)F)cc4Br)C3)cccc12 | 5.11
83 | Cc1cc(N[C@@H](CC(C)C)C(=O)NCCOc2ccccc2)nc(NCC2CCCCC2)n1 | 13.9
84 | O=C(N[C@@H](CC1CCCCC1)C(=O)NCCN1CCCCC1)c1ccc(O)c(-c2ccc(Cl)c(Cl)c2)c1 | 8.7
85 | CCN(CCCN1CCCCC1)c1cc(C)nc(Nc2ccc(C(C)C)cc2)n1 | 10.3
86 | Cc1ccccc1C1CCN(C2CCC(NC(=O)/C=C/c3cc(F)ccc3C(F)(F)F)CC2)CC1 (stereo unspecified) | 9.68
87 | COCCN1CCC(N(CC2(O)CCN(c3ccc(C(F)(F)F)cc3)CC2)C(=O)Cn2c(SCc3cccc(F)c3F)cc(=O)c3ccccc32)CC1 | 9.77
88 | Cc1cc(Br)cnc1CCCCNC1=NC(=O)CN1C | -0
89 | Fc1cc(Cl)ccc1Nc1ccnc(Nc2ccc3cn[nH]c3c2)n1 | 7.97
90 | CN1CCN(Cc2cc3cc(NC(=O)/C=C/c4ccc(Cl)cc4)ccc3s2)CC1 | 9.72
91 | Cc1ccc2ncc(Cl)c(CCN3CCC(NCc4ccc5c(n4)NC(=O)CS5)CC3)c2n1 | 3.13
